# In ChEMBL document CHEMBL4813913, “In vitro identification of imidazo[1,2-a]pyrazine-based antileishmanial agents and evaluation of L. major casein kinase 1 inhibition” (Eur J Med Chem, 2021):
# Key:
# [1] = biological target: T1, Serine/threonine-protein kinase pim-1 (Homo sapiens, UniProt P11309); assay: Inhibition of recombinant human PIM1 expressed in bacteria using histone H1 as substrate in presence of [gamma-33P]ATP by radiometric assay; assay type: ADME
# [2] = biological target: T2, Glycogen synthase kinase-3 (Sus scrofa, UniProt B2LUN4+I6LNT8); assay: Inhibition of pig brain GSK alpha/beta using YRRAAVPPSPSLSRHSSPHQSpEDEEE as substrate in presence of [gamma-33P]ATP by radiometric assay; assay type: ADME, Sus scrofa domesticus
# [3] = Toxicity against Galleria mellonella larva assessed as reduction of viability at 50 mg/kg measured for 7 days; assay type: organism-based; conditions: in vivo, 168 h, time 7 day
# How it was run: (§1)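 G. mellonella larvae (6th stage, 260–320 mg), groups of ten. Injected in the 4th left pro-leg with 10 μL at 10–50 mg/kg; controls got PBS/DMSO (DMSO <40%). Kept in the dark at 37 °C. Survival and cuticular darkening scored daily for 7 days; death taken as no movement on stimulus. Kaplan-Meier with log-rank test; two independent experiments.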
# [4] = Cytotoxicity against human MRC5 cells assessed as reduction in cell viability measured after 96 hrs by resazurin assay; assay type: cell-based
# How it was run: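 Human MRC-5 fibroblasts grown in RPMI 1640 with 10% FBS. Exposed to 100, 10 and 1 μM in triplicate for 96 h. Then 10 μL of 700 μM resazurin added for 4 h and fluorescence read. Value is the mean of triplicates.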
# CDK2/Cyclin A2 [5] = biological target: T3, CDK2/Cyclin A2 (Homo sapiens, UniProt P24941); assay: Inhibition of human CDK2/ cyclinA using histone H1 as substrate in presence of [gamma-33P]ATP by radiometric assay; assay type: ADME, protein-complex assay
# [6] = Cytotoxicity against mouse RAW264.7 cells assessed as reduction in cell growth measured after 48 hrs by SYBR Green 1 dye based fluorescence assay
# How it was run: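 RAW 264.7 cells seeded at 100,000 cells/well in DMEM with 10% FBS, 24 h at 37 °C, 5% CO₂. Two-fold serial dilutions, final 49 nM–100 μM, for 48 h. Growth read by SYBR Green I. CC50 by nonlinear regression. Miltefosine reference; untreated cells as growth control.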
# [7] = biological target: T4, Cyclin-dependent kinase 5/CDK5 activator 1 (Homo sapiens, UniProt Q00535); assay: Inhibition of human recombinant CDK5/ p25 expressed in bacterial expression system using histone H1 as substrate in presence of [gamma-33P]ATP by radiometric assay; assay type: ADME
# Leishmania major = assay: Antileishmanial activity against amastigote stage of Leishmania major (MHOM/IL/81/BNI) infected in BALB/c mouse peritoneal macrophages assessed as reduction in parasitic proliferation measured after 4 days by MayGrunwald-Giemsa stain based microscopic method; assay type: functional, organism-based; conditions: Peritoneal macrophage, 96 h
# How it was run: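 BALB/c peritoneal macrophages on glass slides, 1.5×10⁵ cells/mL in RPMI 1640 with 15% FBS, 24 h attachment. Infected with stationary-phase promastigotes (1.5×10⁶/mL) for 24 h at 37 °C, 5% CO₂. Washed, then exposed 4 days to 100, 10, 1, 0.1 μM (DMSO ≤1% final). Methanol-fixed, May-Grunwald-Giemsa stained, amastigotes counted in 100 macrophages per duplicate well. IC50 from amastigotes/macrophage. Run twice.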
# [8] = biological target: T5, Dual specificity protein kinase CLK1 (Mus musculus, UniProt P22518); assay: Inhibition of recombinant mouse CLK1 expressed in bacteria using GRSRSRSRSRSR as substrate in presence of [gamma-33P]ATP by radiometric assay; assay type: ADME
# [9] = biological target: Dual specificity tyrosine-phosphorylation-regulated kinase 1A (Rattus norvegicus, UniProt Q63470); assay: Inhibition of recombinant rat DYRK1A (1 to 499 ) expressed in bacterial expression system using KKISGRLSPIMTEQ as substrate in presence of ATP measured after 30 mins by ADP-Glo assay; conditions: 0.5 h
# Leishmania infantum = assay: Antileishmanial activity against amastigote stage of Leishmania infantum (MHOM/FR/2008/LEM5700) infected in mouse RAW264.7 cells assessed as reduction in parasitic proliferation measured by SYBR Green 1 dye based fluorescence assay; assay type: functional, organism-based; conditions: MHOM/FR/2008/LEM5700, RAW264.7
# How it was run: (§2)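 RAW 264.7 macrophages seeded at 100,000 cells/well in DMEM with 10% heat-inactivated FBS, 24 h at 37 °C, 5% CO₂. Infected with plateau-phase promastigotes (parasite:macrophage 16:1) for 24 h. Compounds serially diluted, final 391 nM–100 μM. Amastigote viability read by SYBR Green I after lysis and 3 freeze-thaw cycles. IC50 by nonlinear regression against excipient-treated controls. Miltefosine reference.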
# [10] = biological target: T4, Cyclin-dependent kinase 5/CDK5 activator 1; assay: Inhibition of human recombinant CDK5/ p25 expressed in bacterial expression system using histone H1 as substrate in presence of ATP measured after 30 mins by ADP-Glo assay
# CDK2/Cyclin A2 [11] = biological target: T3, CDK2/Cyclin A2; assay: Inhibition of human CDK2/ cyclinA using histone H1 as substrate in presence of ATP measured after 30 mins by ADP-Glo assay; assay type: protein-complex assay
# [12] = biological target: T1, Serine/threonine-protein kinase pim-1; assay: Inhibition of recombinant human PIM1 expressed in bacteria using histone H1 as substrate in presence of ATP measured after 30 mins by ADP-Glo assay; conditions: 0.5 h
# [13] = biological target: T5, Dual specificity protein kinase CLK1; assay: Inhibition of recombinant mouse CLK1 expressed in bacteria using GRSRSRSRSRSR as substrate in presence of ATP measured after 30 mins by ADP-Glo assay
# Leishmania braziliensis = assay: Antileishmanial activity against amastigote stage of Leishmania braziliensis (MHOM/BR/75/M2903b) infected in mouse RAW264.7 cells assessed as reduction in parasitic proliferation measured by SYBR Green 1 dye based fluorescence assay; assay type: functional, organism-based; how it was run: as §2
# [14] = Toxicity against Galleria mellonella larva assessed as cuticular darkening at 50 mg/kg measured for 7 days; assay type: organism-based; conditions: in vivo, 168 h, time 7 day; how it was run: as §1
# [15] = Inhibition of recombinant Leishmania major CK1.2 expressed in bacterial expression system using RRKHAAIGSpAYSITA as substrate in presence of ATP measured after 30 mins by ADP-Glo assay
# CDK9/cyclin T1 = CDK9/cyclin T1 (Homo sapiens, UniProt P50750); assay: Inhibition of human recombinant CDK9/CyclinT expressed in baculovirus infected Sf9 cells using YSPTSPSYSPTSPSYSPTSPSKKK as substrate in presence of ATP measured after 30 mins by ADP-Glo assay
# Leishmania amazonensis = assay: Antileishmanial activity against amastigote stage Leishmania amazonensis (MHOM/BR/73/M2269) infected in mouse RAW264.7 cells assessed as reduction in parasitic proliferation measured by SYBR Green 1 dye based fluorescence assay; assay type: functional, organism-based; conditions: MHOM/BR/73/M2269, RAW264.7; how it was run: as §2
# [16] = biological target: Receptor-interacting serine/threonine-protein kinase 3 (Homo sapiens, UniProt Q9Y572); assay: Inhibition of recombinant human RIPK3 expressed in baculovirus infected Sf9 cells using MBP as substrate in presence of ATP measured after 30 mins by ADP-Glo assay; assay type: ADME; conditions: sf9, 0.5 h
# Aurora kinase B = Aurora kinase B (Homo sapiens, UniProt Q96GD4); assay: Inhibition of recombinant human AURKB expressed in baculovirus infected Sf9 cells using MBP as substrate in presence of ATP measured after 30 mins by ADP-Glo assay; conditions: sf9, 0.5 h
# [17] = biological target: Casein kinase I isoform epsilon (Homo sapiens, UniProt P49674); assay: Inhibition of recombinant human CK1 epsilon expressed in baculovirus infected Sf9 cells using RRKHAAIGSpAYSITA as substrate; assay type: ADME
# Leishmania donovani = assay: Antileishmanial activity against amastigote stage of Leishmania donovani (MHOM/ET/67/HU3) infected in mouse RAW264.7 cells assessed as reduction in parasitic proliferation measured by SYBR Green 1 dye based fluorescence assay; assay type: functional, organism-based; conditions: MHOM/ET/67/HU3, RAW264.7; how it was run: as §2
# [18] = biological target: T2, Glycogen synthase kinase-3; assay: Inhibition of pig brain GSK alpha/beta using YRRAAVPPSPSLSRHSSPHQSpEDEEE as substrate in presence of ATP measured after 30 mins by ADP-Glo assay; assay type: ADME, tissue-based, Sus scrofa domesticus
SMILES,inhibition (INH) [1],IC50 [2],Activity [3],CC50 at 96 h [4],IC50 (CDK2/Cyclin A2 [5]),CC50 at 48 h [6],IC50 [7],IC50 (Leishmania major),IC50 [8],IC50 [17],also measured
CN(C)c1nccn2c(-c3ccnc(N)n3)c(-c3ccc(F)cc3)nc12,Not Active,> 10 µM,Non-Toxic,100 µM,> 10 µM,42.2 µM,> 10 µM,8.24 µM,0.25 µM,,
CN(C)c1nccn2c(-c3cnc(N)nc3)c(-c3ccc(F)cc3)nc12,,,Non-Toxic,> 100 µM,,49 µM,,> 50 µM,,> 100 µM,inhibition (INH) [9]: Not Active; IC50 (Leishmania infantum): > 50 µM; IC50 [10]: > 10 µM; IC50 (CDK2/Cyclin A2 [11]): > 10 µM; inhibition (INH) [12]: Not Active; IC50 [13]: > 10 µM; IC50 (Leishmania braziliensis): > 50 µM; Activity [14]: Non-Toxic; IC50 [15]: 15.9 µM; IC50 (CDK9/cyclin T1): > 10 µM; IC50 (Leishmania amazonensis): > 50 µM; inhibition (INH) [16]: Not Active; inhibition (INH) (Aurora kinase B): Not Active; IC50 (Leishmania donovani): > 50 µM; IC50 [18]: > 10 µM
CSc1nccc(-c2c(-c3ccccc3)nc3c(N(C)C)nccn23)n1,Not Active,> 10 µM,Non-Toxic,81 µM,> 10 µM,33.4 µM,> 10 µM,> 100 µM,0.9 µM,> 10 µM,
CSc1nccc(-c2c(-c3ccccc3)nc3c(Cl)nccn23)n1,Not Active,> 10 µM,Non-Toxic,33.5 µM,> 10 µM,50.6 µM,> 10 µM,> 100 µM,> 10 µM,,
CSc1nccc(-c2c(-c3ccc(F)cc3)nc3c(N(C)C)nccn23)n1,Not Active,> 10 µM,Non-Toxic,67 µM,> 10 µM,36.5 µM,> 10 µM,> 100 µM,> 10 µM,> 10 µM,
CSc1nccc(-c2c(-c3ccc(F)cc3)nc3c(N)nccn23)n1,Not Active,4.5 µM,Non-Toxic,18.4 µM,10 µM,11.5 µM,1 µM,54.6 µM,0.16 µM,0.18 µM,
